In the supplement of paper PMC9446081:
About 220 (0.56%) of roughly 39,000 compounds showed activity. The list shows a part of the results.

test system: Escherichia coli K-12 BW25113; assay: relative growth (OD600 normalised to plate interquartile mean) (fraction); higher = less growth inhibition, active = 0.2 or less; conditions: 50 µM; LB; incubation time: overnight (16-24 h)
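Further: static incubation at 37 °C against the wild-type strain, values averaged over two biological replicates.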

Structure (SMILES) | relative growth
C[C@@H](N)C(=O)N[C@@H](CO)C(=O)N[C@H](C(=O)N[C@H](C(=O)N[C@H](C(=O)N[C@@H](CC(N)=O)C(=O)N[C@@H](Cc1ccc(O)cc1)C(=O)N[C@H](C(N)=O)[C@@H](C)O)[C@@H](C)O)[C@@H](C)O)[C@@H](C)O | inactive: 1.01
CC(C)NC(=O)[C@H]1CCS(=O)(=O)[C@H]2CNC[C@@H]12 | inactive: 0.994
NSC(=S)N1CCCC1 | inactive: 0.694
NCc1cccnc1 | inactive: 0.976
NCCc1[nH]nc2c1CCCC2 | inactive: 1.01
NCCc1ccncc1 | inactive: 1.02
C=C[C@H]1CN2CC[C@@H]1C[C@@H]2CO | inactive: 0.954
NC(=O)c1ccc(N)nc1 | inactive: 0.986
C[C@@H](N)Cc1c[nH]c2ccc(OCc3cccs3)cc12 | inactive: 0.98
NC[C@@H]1CCCN2CCCC[C@H]12 | inactive: 0.968
C=CCSSCC=C | inactive: 1.01
C[C@@H]1CN([C@H](C)CO)C(=O)CCCn2cc(nn2)CO[C@@H]1CN(C)C(=O)Oc1cccc2ccccc12 | inactive: 0.993
C[C@H](CO)N1C[C@H](C)[C@@H](CN(C)C(=O)Oc2ccccc2)OCc2ccccc2-c2c(n(C)c3ccccc23)C1=O | inactive: 0.984
CCOC(=O)CC(SP(=S)(OC)OC)C(=O)OCC (configuration not stated) | inactive: 1.05
CC(C)N1CCO[C@H]2CN(C(=O)N(C)C)C[C@@H]21 | inactive: 0.967
COc1cc2c(c(OC)c1OC)-c1ccc(OC)c(=O)cc1C(NC(C)=O)CC2 (configuration not stated) | inactive: 1.01
CCCCOC(=O)c1ccccc1C(=O)OCCCC | inactive: 1.11
Cc1cc(OC(=O)N(C)C)cc(=O)n1C | inactive: 1.02
Cc1nc[nH]c1CCN | inactive: 1.01
C[C@H]1CN([C@@H](C)CO)C(=O)CCCn2nncc2CO[C@H]1CN(C)C(=O)Oc1ccc2ccccc2c1 | inactive: 1.02
O=C(NC(=O)c1c(F)cccc1F)Nc1ccc(Cl)cc1 | inactive: 1.17
CN1CCc2cc([C@H](CN)N(C)C)ccc21 | inactive: 0.996
CC[N+]1(C)CCCC(OC(=O)C(O)(c2ccccc2)c2ccccc2)C1.[Br-] (configuration not stated) | inactive: 1.04
Cc1ncc(CNC(=O)N(CCCl)N=O)c(N)n1.Cl | inactive: 1.09
[N-]=[N+]=NCc1ccccc1C[C@]1(C(=O)N2CCCCC2)N=C(c2ccc(OCCCO)cc2)O[C@H]1c1ccccc1N=[N+]=[N-] | inactive: 1.01
CN(C)C(=O)N[C@H]1CN[C@H]2CCCO[C@H]21 | inactive: 0.972
CCC1(C2=NCCN2)Cc2ccccc2O1.Cl (configuration not stated) | inactive: 0.883
